Assay in all cases: enrichment score (SH2-bound / input frequency) (ratio); bacterial display of known human phosphotyrosine sites (pTyr-Var adds point mutants) read by sequencing; higher = stronger binding; tyrosines were phosphorylated by kinases first
Holding throughout (conditions): peptide library: pTyr-Var

Test [1] has as its target SHP2 C-SH2 domain E139D.
Test [2] has as its target SHP2 C-SH2 domain wild-type.
For test [3], the target named is SHP2 N-SH2 domain L43F.
Test [4] addresses SHP2 N-SH2 domain T42A.
For test [5], the target named is SHP2 N-SH2 domain T52S.
Test [6] deals with SHP2 N-SH2 domain wild-type.

Some of the results follow. Rule as the data show it: active = 3.2 or more and inactive = the rest. The signal is at background level for most entries.
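Also: displayed peptides selected on beads carrying the immobilized SH2 domain, with library peptides lacking any tyrosine serving as negative controls.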

With QRIYQYIQSRF [DYRK1B_Y273], the enrichment score in test [1] is inactive: 2.23; in test [2], inactive: 2.03; in test [3] it was inactive: 2.02; in test [4] it was active: 3.7; in test [5] it was inactive: 1.85; in test [6] it was inactive: 1.62.
For the molecule GANSEYIIAEK [ECHS1_Y35_F33S], the enrichment score was inactive: 0.646 in test [1]; inactive: 0.538 in test [2]; inactive: 0.518 in test [3]; inactive: 0.573 in test [4]; inactive: 0.574 in test [5]; inactive: 0.621 in test [6].
In the case of MMVGAYSSLEG [ECPAS_Y470_T472S], the enrichment score in test [1] was inactive: 1.05; in test [2], inactive: 0.928; in test [3], inactive: 0.831; in test [4], inactive: 1.31; in test [5], inactive: 0.978; in test [6], inactive: 0.974.
For LGQRIYQYIQS [DYRK1B_Y271], the enrichment score in test [1] is inactive: 1.48; in test [2], inactive: 1.73; in test [3] it was inactive: 2.06; in test [4], inactive: 2.49; in test [5], inactive: 2.07; in test [6], inactive: 1.28.
Turning to INVTIYGKTFR [EFHC1_Y177_I174V], the enrichment score in test [1] was inactive: 1.37; in test [2], inactive: 1.34; in test [3], inactive: 1.33; in test [4], inactive: 1.3; in test [5], inactive: 0.912; in test [6], inactive: 1.65.
Turning to AAVNGYVFGGG [ECHS1_Y137_A138V], the enrichment score in test [1] was inactive: 0.824; in test [2] it was inactive: 0.742; in test [3], inactive: 0.764; in test [4], inactive: 0.736; in test [5], inactive: 0.742; in test [6] it was inactive: 0.733.
Consider INITIYGKTFC [EFHC1_Y177_R182C], for which the enrichment score in test [1] is inactive: 1.38; in test [2] it was inactive: 1.94; in test [3], inactive: 1.69; in test [4], inactive: 1.38; in test [5] it was inactive: 1.43; in test [6] it was inactive: 1.9.
Take PLQDVYKIGGI [EEF1A2_Y254]: the enrichment score was inactive: 1.05 in test [1]; inactive: 0.806 in test [2]; inactive: 0.958 in test [3]; inactive: 1.04 in test [4]; inactive: 1.05 in test [5]; inactive: 0.963 in test [6].
For ISTAGYSIPEL [EDAR_Y406], the enrichment score in test [1] is inactive: 0.854; in test [2], inactive: 1.1; in test [3] it was inactive: 1.09; in test [4], inactive: 1.43; in test [5] it was inactive: 0.978; in test [6] it was inactive: 0.915.
Turning to INITIYGKTFH [EFHC1_Y177_R182H], the enrichment score was inactive: 1.39 in test [1]; inactive: 1.9 in test [2]; inactive: 1.58 in test [3]; inactive: 1.25 in test [4]; inactive: 1.53 in test [5]; inactive: 1.77 in test [6].
In the case of RNESFYDTFST [EFCAB3_Y372], the enrichment score in test [1] was inactive: 0.783; in test [2], inactive: 0.678; in test [3] it was inactive: 0.981; in test [4] it was inactive: 0.622; in test [5], inactive: 0.961; in test [6], inactive: 0.686.
As to VFPATYHPDHW [EFCAB12_Y544_YF], the enrichment score was inactive: 1.14 in test [1]; inactive: 1.04 in test [2]; inactive: 1.16 in test [3]; inactive: 0.804 in test [4]; inactive: 1.21 in test [5]; inactive: 1.07 in test [6].
ATPSQYMTFLH [DYNC2H1_Y2872_R2871Q]: the enrichment score is inactive: 1.01 in test [1]; inactive: 1.32 in test [2]; inactive: 1.1 in test [3]; inactive: 1.21 in test [4]; inactive: 0.938 in test [5]; inactive: 0.952 in test [6].
For the molecule SSPMKYQQNVS [EGFEM1P_Y160], the enrichment score is inactive: 0.769 in test [1]; inactive: 0.557 in test [2]; inactive: 0.568 in test [3]; inactive: 0.61 in test [4]; inactive: 0.735 in test [5]; inactive: 0.857 in test [6].
For the molecule IRGNMYFENSF [EGFR_Y112_YF], the enrichment score in test [1] is inactive: 1.11; in test [2] it was inactive: 1.33; in test [3] it was inactive: 1.35; in test [4], inactive: 1.19; in test [5] it was inactive: 1.22; in test [6] it was inactive: 1.37.
For STEEQYRIRQV [EFHC1_Y115], the enrichment score in test [1] was inactive: 0.794; in test [2] it was inactive: 0.576; in test [3] it was inactive: 0.737; in test [4], inactive: 0.577; in test [5] it was inactive: 0.711; in test [6], inactive: 0.524.
Take RGNMYYENSYA [EGFR_Y113]: the enrichment score was inactive: 1.03 in test [1]; inactive: 0.909 in test [2]; inactive: 0.87 in test [3]; inactive: 0.739 in test [4]; inactive: 0.953 in test [5]; inactive: 0.872 in test [6].
In the case of QRIYQYIRSRF [DYRK1B_Y273_Q275R], the enrichment score in test [1] was inactive: 0.242; in test [2], inactive: 0.276; in test [3] it was inactive: 0.262; in test [4] it was inactive: 0.337; in test [5], inactive: 0.229; in test [6], inactive: 0.484.
ATPSRYMTFLH [DYNC2H1_Y2872]: the enrichment score in test [1] was inactive: 1.12; in test [2] it was inactive: 1.97; in test [3], inactive: 0.88; in test [4], inactive: 1.61; in test [5], inactive: 0.844; in test [6], inactive: 0.993.

These data come from the supplement of paper PMC10369915.
